Data reported in PubChem BioAssay AID360 (National Center for Advancing Translational Sciences (NCATS), 2006).
Out of some 48,000 compounds screened, about 550 (1.1%) were called active. Inconclusive results (about 4%) are left out. No stated cut-off is given here; in the data, active means potency below about 15 µM; inconclusive means mostly about 16 µM to 33 µM; inactive means weaker than that. The list shows a part of the results.

target: Lysosomal acid glucosylceramidase (Homo sapiens) (UniProt P04062); assay: Glucocerebrosidase; details: purified enzyme, resorufin glucoside fluorescence (screen aimed at inhibitors), 20 min;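 further: the screen sought inhibitors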
Summary of the method: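 Wild-type enzyme at 0.2 nM final in 50mM citric acid/KH2PO4, 10mM sodium taurocholate, 0.01% tween-20, pH 5.9, with resorufin beta-D-glucopyranoside at 30 uM final. Compounds titrated, 20 min at RT, red fluorescence read; AC50 from titration.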
Potency means the concentration at half of the fitted maximal effect.

UniProt P04062, sequence (P04062 whole entry, looked up): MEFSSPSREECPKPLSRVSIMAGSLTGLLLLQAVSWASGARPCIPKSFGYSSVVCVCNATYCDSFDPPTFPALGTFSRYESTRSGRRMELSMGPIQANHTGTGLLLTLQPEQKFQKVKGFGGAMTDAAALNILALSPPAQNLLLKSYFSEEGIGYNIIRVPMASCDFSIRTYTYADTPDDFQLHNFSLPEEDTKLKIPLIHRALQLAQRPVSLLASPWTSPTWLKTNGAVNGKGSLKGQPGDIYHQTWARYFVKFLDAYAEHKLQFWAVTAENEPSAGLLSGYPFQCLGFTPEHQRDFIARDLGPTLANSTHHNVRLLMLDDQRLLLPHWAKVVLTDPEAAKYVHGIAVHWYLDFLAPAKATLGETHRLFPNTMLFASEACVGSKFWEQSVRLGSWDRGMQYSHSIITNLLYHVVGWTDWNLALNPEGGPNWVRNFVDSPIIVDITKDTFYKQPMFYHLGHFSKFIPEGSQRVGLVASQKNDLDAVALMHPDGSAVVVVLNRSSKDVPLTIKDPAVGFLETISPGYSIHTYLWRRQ

Potency, active:
CCOc1ccc(C2C=C(c3ccccc3)Nc3nnnn32)cc1 (stereo not given) 3.74 µM, Fc1ccccc1N1CCN(c2nc3ccccc3n3nnnc23)CC1 12.9 µM

Potency, inactive:
CCOC(=O)C1CCCN(C(=O)c2sc3nc(-c4ccccc4)cn3c2C)C1 (stereo not given) > 76.9 µM, COc1ccc(-c2csc(N(CC3CCCO3)C(=O)c3ccco3)n2)cc1 (stereo not given) > 76.9 µM, Cc1ccc(CNC(=O)C2CC(=O)N(C3CCCCCCC3)C2)cc1 (stereo not given) > 76.9 µM, CN1CCN(C(=O)c2ccc(COc3ccc(Cl)cc3Cl)cc2)CC1 > 76.9 µM, CCC(=O)Nc1cc(-c2nn3c(C)nnc3s2)ccc1C > 76.9 µM, CCOC(=O)C(C(=O)OCC)C(=O)c1cc(OC)c(OC)c(OC)c1 > 76.9 µM, CCOC(=O)CSc1nnc(-c2cccc(Cl)c2)n1CC > 76.9 µM, CCCCN(C(=O)CNC(=O)c1ccco1)C(C(=O)NC1CCCCC1)c1ccc(OC)cc1OC (stereo not given) > 76.9 µM, OC1CCN(C(c2ccc3ncccc3c2)c2nnnn2C2CCCCC2)CC1 (stereo not given) > 76.9 µM, COCCNC(=O)CSCc1nc(-c2ccc(SC)cc2)oc1C > 76.9 µM, O=C(COC(=O)CCc1c[nH]c(=O)[nH]1)Nc1cccc(Cl)c1 > 76.9 µM, CCOc1ccc(-c2nnn(CC(=O)NCc3ccc(F)cc3)n2)cc1OCC > 76.9 µM, COc1ccccc1-n1cc(C(=O)NCC(=O)N2CCN(c3ccccn3)CC2)c2ccccc2c1=O > 76.9 µM, COC(=O)C(NC=O)C(O)(Cc1ccccc1)C(F)(F)F (stereo not given) > 76.9 µM, COC(=O)c1ccc(-n2nnnc2SCC(=O)NCc2cccc(C(=O)O)c2)cc1 > 76.9 µM, Cc1c(OCC(=O)OC(C)C)ccc2c3c(c(=O)oc12)CCC3 > 15.4 µM, Cc1ccc2c(CC(=O)Nc3nc(C)cs3)coc2c1 > 76.9 µM, c1csc(CNc2nc3ccccc3n2CCN2CCOCC2)c1 > 76.9 µM, Cc1ccc(-n2c(C)nc3c(cnn3-c3ccc(F)cc3)c2=O)cc1 > 76.9 µM, CC(C)CCn1nnnc1C(c1ccccc1F)N1CCC(C(N)=O)CC1 (stereo not given) > 76.9 µM, CN(CC(=O)Nc1ccc2c(c1)OCCO2)S(=O)(=O)c1ccc(Br)s1 > 76.9 µM, O=C(CCN1C(=O)C2CC=CCC2C1=O)N1CCN(c2ccccn2)CC1 (stereo not given) > 76.9 µM, Cc1ccc2nc3c(cc(C#N)c(=O)n3CCN3CCOCC3)c(=O)n2c1 > 76.9 µM, CCOC(=O)N1CCN(c2ncnc3c2oc2nc(CC(C)C)c4c(c23)CCC4)CC1 > 76.9 µM, Cc1cc(/N=C/N(C)C)on1 > 76.9 µM, CN(C)c1cc(N)c2ccccc2n1 (tested in a mixture with another compound), Cc1sc2ncnc(OCC(=O)N3CCN(S(=O)(=O)c4ccccc4)CC3)c2c1C > 76.9 µM, CCOCc1nnc(NC(=O)CCc2ccccc2)s1 > 76.9 µM, Cc1noc(C)c1CSCC(=O)N1CCN(c2ccc(F)cc2)CC1 > 76.9 µM, CC(C)C(NCc1c(Cl)cccc1Cl)C(=O)O (stereo not given) > 76.9 µM, C=CCOc1ccc2ccccc2c1CNc1ncn[nH]1 > 76.9 µM, O=C1c2ccccc2C(=O)N1CCC(c1ccc(F)cc1)c1ccco1 (stereo not given) > 76.9 µM, O=C(CN1CCOCC1)OCCCc1ccccc1 > 76.9 µM, O=C(c1ccc2c(c1)OCO2)[C@@H]1[C@@H]2C(=O)N(C3CCCCC3)C(=O)[C@@H]2C2c3ccccc3C=CN21 (stereo not given in full) > 76.9 µM, CC(=O)Nc1ccc(S(=O)(=O)N2CCN(C(=O)N3CCOCC3)CC2)cc1 > 76.9 µM, COc1ccc(N(C(=O)c2ccco2)C(C(=O)NC2CCCC2)c2ccc(N(C)C)cc2)cc1 (stereo not given) > 76.9 µM, NC(=O)CSc1ncc(-c2ccccc2)[nH]1 > 76.9 µM, O=C1OCc2cc(NC(=O)C3CCCO3)ccc21 (stereo not given) > 76.9 µM, C=CC(C)n1c(Br)nc2c1c(=O)[nH]c(=O)n2C (stereo not given) > 76.9 µM, CC(=O)c1ccc(Oc2ncnc3sccc23)c(CN2CCOCC2)c1 > 76.9 µM, COc1ccc(OCC(=O)Nc2cccc3ncccc23)cc1 > 76.9 µM, Cc1ccc(N(C(=O)C2CCCC2)C2C=CS(=O)(=O)C2)cc1C (stereo not given) > 76.9 µM, O=C(CCCOc1ccccc1)Nc1nnc(C2CCCO2)s1 (stereo not given) > 76.9 µM
